Source: patent US11813239B2, “Compositions and methods for improving cardiac structure and/or function” (Wisconsin Alumni Research Foundation, priority 2020, dated 2023)

Legend:
[1] = system: adult mouse heart following myocardial infarction; experiment: Trichrome staining after adult MI, malonate treatment starting 1-week post-MI; conditions: malonate for 4 weeks starting 1-week post-MI, 6 weeks post-MI
Description: Hearts were harvested and fixed in 4% paraformaldehyde (PFA) in PBS solution overnight at 4° C., processed for paraffin embedding, and sectioned in intervals. Masson's trichrome staining was performed according to the manufacture's protocol (Newcomer Supply, Middleton, WI). Scar size measurements were quantified from at least 3 sections of the heart from ligature to apex. ImageJ was used to quantify the fibrotic scar, and the average scar area for each heart was plotted.

[2] = system: adult cardiomyocytes; experiment: Histology after adult MI (TTC, TUNEL, pH3, Aurora B, BrdU, nucleation, γH2AX, trichrome, WGA, coronary casting, PECAM/α-SMA); format: in vivo, mouse; conditions: dimethyl malonate 100 mg/kg daily
[3] = system: cardiomyocytes; experiment: Immunostaining (pH3, Aurora B), WGA and trichrome staining after MI in P7 mice
[4] = system: tricarboxylic acid (TCA) cycle and glucose metabolism; experiment: LC-MS metabolite analysis of adult hearts; conditions: adult mice treated for 2 weeks with dimethyl malonate, vs saline
Description: To analyze intracellular metabolites, metabolites were extracted with cold liquid chromatography-mass spectrometry (LC-MS) grade 3/1 butanol/methanol (v/v). The methanol layer was transferred to a new vial and samples were dried under nitrogen flow and subsequently dissolved in LC-MS grade water for LC-MS analysis methods. Protein pellets were removed by centrifugation. Samples were analyzed using a Thermo Q-Exactive mass spectrometer coupled to a Vanquish Horizon Ultra-High Performance Liquid Chromatograph (UHPLC). Metabolites were separated on a C18 (details below) at a 0.2 ml per min flow rate and 30° C. column temperature. […] The identification of metabolites reported was based on exact m/z and retention times, which were determined with chemical standards. Data were analyzed with Maven. Relative metabolite levels were normalized to internal standard Tryptophan (^13C11) and expressed relative to levels measured in the control group.
To determine whether SDH inhibition regulates cardiomyocyte cell cycle activity by modulating succinate levels, we measured the levels of intracellular succinate by liquid chromatography-mass spectrometry (LC-MS). […]

[5] = MI at P7, dimethyl malonate 100 mg/kg daily for 2 weeks from birth, 7 days post-MI, vs saline controls

SMILES	myocardial thickness and fibrosis (trichrome staining) [1]	cardiomyocytes undergoing mitosis (pH3 immunostaining) ([2]; 7- and 14-days post-MI, vs saline controls)	cardiomyocytes undergoing cytokinesis (Aurora B staining) ([2]; 7- and 14 days post-MI)	cardiomyocytes undergoing cytokinesis (Aurora B staining) [3, 5]	cardiomyocytes undergoing mitosis (pH3 staining) [3, 5]	glucose metabolism and glycolytic intermediates (LC-MS metabolomics) [4]	tricarboxylic acid (TCA) cycle metabolites (LC-MS metabolomics) [4]	regeneration and fibrotic scar (trichrome staining) ([3]; MI at P7, MitoQ 10 mg/kg intraperitoneally daily for 2 weeks after birth, 21 days post-MI)
COC(=O)CC(=O)OC [Malonate, dimethyl malonate]	remarkable increase in myocardial thickness with minimal fibrosis	significant increase in the number of cardiomyocytes undergoing mitosis	significant increase in the number of cardiomyocytes undergoing cytokinesis	significant increase in the number of cardiomyocytes undergoing cytokinesis	significant increase in the number of cardiomyocytes undergoing mitosis	dynamic shift in glucose metabolism and glycolytic intermediates	marked reduction in tricarboxylic acid (TCA) cycle metabolites	–
COC1=C(OC)C(=O)C(CCCCCCCCCC[P+](c2ccccc2)(c2ccccc2)c2ccccc2)=C(C)C1=O [MitoQ]	–	–	–	–	–	–	–	smaller scar size, there was no complete myocardium regeneration and the fibrotic scar was still present
